Measurements from the supplement of paper PMC4967469.

Legend:
Test in all cases: Viability of human cancer cell lines after 72 h of drug (GDSC screen)
[1] = compound: CC(C)=CC[C@@H](O)C1=CC(=O)c2c(O)ccc(O)c2C1=O [Shikonin]; details: top dose 16 µM; top dose inferred
Experimental: (§1)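 Human cancer cell lines in 384-well plates, medium with 10% serum, drug for 72 h over a 256-fold dose range (nine 2-fold or five 4-fold steps up to the top dose). Adherent lines were fixed and stained with the nucleic acid dye Syto60, suspension lines read with resazurin; signal relative to control wells, capped at 0 and 100%. One two-parameter sigmoid per drug and line, fitted in a mixed model over all curves with the slope shared within a line.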

[2] = compound: O=C(c1cc(Cc2n[nH]c(=O)c3ccccc23)ccc1F)N1CCN(C(=O)C2CC2)CC1 [Olaparib]
Experimental: as §1

[3] = compound: NC(=O)c1ccc(N(C(N)=O)c2c(F)cccc2F)nc1-c1ccc(F)cc1F [VX-702]; details: top dose 2 µM; top dose inferred
Experimental: as §1

[4] = compound: CNC(=O)c1ccc(Nc2cc(Nc3ccccc3S(=O)(=O)C(C)C)c3cc[nH]c3n2)nc1 [HG-5-113-01]; details: top dose 10 µM; top dose inferred
Experimental: as §1

[5] = compound: CCNc1cc(NC2CCC(O)CC2)nc(Nc2ccc3c(ccn3Cc3ccccc3)c2)n1 [CGP-082996 (CINK4)]; details: top dose 5.12 µM; top dose inferred
Experimental: as §1

[6] = compound: COc1cc(N2CCN(C)CC2)ccc1Nc1ncc2c(n1)N(C)c1ccccc1C(=O)N2C [XMD8-85]; details: top dose 8 µM; top dose inferred
Experimental: as §1

[7] = compound: COc1cc(-c2nn([C@H]3CC[C@H](N4CCN(C(C)=O)CC4)CC3)c3ncnc(N)c23)ccc1NC(=O)c1cc2ccccc2n1C [A-770041]; details: top dose 5.12 µM; top dose inferred
Experimental: as §1

[8] = compound: Cc1cc(N2CCOCC2)cc2[nH]c(-c3c(NC[C@@H](O)c4cccc(Cl)c4)cc[nH]c3=O)nc12 [BMS-536924]
Experimental: as §1

[9] = compound: Cc1cccc(-c2[nH]c(C(C)(C)C)nc2-c2ccc3nccnc3c2)n1 [SB-525334]; details: top dose 20 µM; top dose inferred
Experimental: as §1

[10] = compound: O=C1NC(=O)c2c1c(-c1ccccc1Cl)cc1[nH]c3ccc(O)cc3c21 [Wee1 inhibitor 681640]; details: top dose 2 µM; top dose inferred
Experimental: as §1

[11] = compound: Cc1ccc(-n2nc(C(C)(C)C)cc2NC(=O)Nc2ccc(OCCN3CCOCC3)c3ccccc23)cc1 [BIRB 0796]; details: top dose 10 µM; top dose inferred
Experimental: as §1

[12] = top dose 5 µM, screen: GDSC drug entry 1017, top dose inferred
[13] = top dose 10 µM, screen: GDSC drug entry 1495
[14] = top dose 4 µM, screen: GDSC drug entry 1091, top dose inferred
[15] = top dose 5.12 µM, screen: GDSC drug entry 62

Row | Cell Line | AUC [1] | pIC50 [1] | AUC [2, 12] | pIC50 [2, 12] | AUC [2, 13] | pIC50 [2, 13] | AUC [3] | pIC50 [3] | AUC [4] | pIC50 [4] | AUC [5] | pIC50 [5] | AUC [6] | pIC50 [6] | AUC [7] | pIC50 [7] | AUC [8, 14] | pIC50 [8, 14] | AUC [8, 15] | pIC50 [8, 15] | AUC [9] | pIC50 [9] | AUC [10] | pIC50 [10] | AUC [11] | pIC50 [11]
1 | BB65-RCC (kidney, adherent) | 0.493 | 6.02 | 0.977 | < 5.30 | 0.956 | < 5.00 | 0.955 | < 5.70 | 0.781 | 5.32 | 0.938 | < 5.29 | 0.982 | < 5.10 | 0.847 | 5.33 | 0.924 | < 5.40 | 0.865 | < 5.29 | 0.968 | < 4.70 |  |  |  | 
2 | COLO-829 (melanoma, adherent) | 0.42 | 6.26 |  |  | 0.956 | < 5.00 |  |  | 0.951 | < 5.00 | 0.96 | < 5.29 | 0.884 | < 5.10 | 0.86 | < 5.29 | 0.965 | < 5.40 | 0.97 | < 5.29 | 0.917 | < 4.70 |  |  |  | 
3 | Hs-445 (Hodgkin lymphoma, suspension) | 0.312 | 6.51 |  |  | 0.957 | < 5.00 |  |  | 0.798 | 5.36 | 0.982 | < 5.29 | 0.958 | < 5.10 | 0.867 | 5.39 | 0.912 | < 5.40 | 0.869 | 5.38 | 0.956 | < 4.70 |  |  |  | 
4 | IST-MES1 (mesothelioma, adherent) | 0.597 | 5.73 |  |  | 0.903 | < 5.00 |  |  | 0.813 | 5.26 | 0.981 | < 5.29 | 0.877 | < 5.10 | 0.675 | 6.01 | 0.899 | < 5.40 | 0.644 | 6.09 | 0.958 | < 4.70 |  |  |  | 
5 | LB2241-RCC (kidney, adherent) | 0.542 | 5.88 | 0.978 | < 5.30 | 0.922 | < 5.00 | 0.974 | < 5.70 | 0.645 | 5.78 | 0.971 | < 5.29 | 0.842 | 5.18 | 0.893 | < 5.29 | 0.804 | 5.64 | 0.968 | < 5.29 | 0.982 | < 4.70 |  |  |  | 
6 | LS-123 (large intestine, adherent) | 0.398 | 6.32 | 0.966 | < 5.30 | 0.942 | < 5.00 | 0.953 | < 5.70 | 0.726 | 5.46 | 0.865 | < 5.29 | 0.883 | < 5.10 | 0.812 | 5.41 | 0.979 | < 5.40 | 0.882 | < 5.29 | 0.959 | < 4.70 |  |  |  | 
7 | NCI-H716 (large intestine, suspension) | 0.976 | < 4.80 | 0.801 | 5.49 | 0.979 | < 5.00 | 0.672 | 6.37 | 0.661 | 5.70 | 0.98 | < 5.29 | 0.824 | 5.19 | 0.975 | < 5.29 | 0.57 | 6.39 | 0.879 | < 5.29 | 0.96 | < 4.70 |  |  |  | 
8 | SU-DHL-4 (B-cell lymphoma, suspension) | 0.609 | 5.74 | 0.997 | < 5.30 | 0.995 | < 5.00 | 0.997 | < 5.70 |  |  | 0.873 | 5.57 | 0.822 | 5.51 | 0.07 | 7.61 | 0.997 | < 5.40 | 0.91 | 5.45 | 0.992 | < 4.70 | 0.997 | < 5.70 | 0.997 | < 5.00
9 | SU-DHL-6 (B-cell lymphoma, suspension) | 0.558 | 5.86 | 0.995 | < 5.30 | 0.995 | < 5.00 | 0.995 | < 5.70 |  |  | 0.885 | 5.50 | 0.726 | 5.75 | 0.091 | 7.57 | 0.993 | < 5.40 | 0.796 | 5.76 | 0.984 | < 4.70 | 0.962 | < 5.70 | 0.995 | < 5.00
10 | SU-DHL-16 (B-cell lymphoma, suspension) | 0.314 | 6.45 | 0.98 | < 5.30 | 0.982 | < 5.00 | 0.989 | < 5.70 |  |  | 0.95 | < 5.29 | 0.918 | 5.22 | 0.358 | 6.84 | 0.96 | < 5.40 | 0.896 | 5.49 | 0.98 | < 4.70 | 0.987 | < 5.70 | 0.996 | < 5.00
11 | SUP-B15 (lymphoblastic leukaemia, suspension) | 0.465 | 6.09 | 0.757 | 5.78 |  |  | 0.951 | < 5.70 |  |  | 0.866 | 5.37 | 0.811 | 5.39 | 0.514 | 6.46 |  |  | 0.925 | < 5.29 | 0.842 | 4.88 | 0.982 | < 5.70 | 0.983 | < 5.00
12 | SUP-HD1 (Hodgkin lymphoma, suspension) | 0.489 | 6.03 | 0.968 | < 5.30 | 0.958 | < 5.00 | 0.962 | < 5.70 |  |  | 0.967 | < 5.29 | 0.938 | < 5.10 | 0.987 | < 5.29 | 0.891 | < 5.40 | 0.769 | 5.73 | 0.932 | < 4.70 | 0.96 | < 5.70 | 0.988 | < 5.00

pIC50: −log10 of the molar value. IC50 is the fitted dose that halves viability relative to control wells, and lower means more sensitive; a limit (>, <) means that the fit lies beyond the doses tested. For AUC the same curve is integrated over the 256-fold range of doses and scaled to a fraction; it is 1 without any effect and falls as sensitivity rises. The top dose, if marked as inferred, comes from the curve model; the source does not state it. For part of these data: Drugs with an entry number were screened twice under separate entries, and the two screens often disagree.
